Laboratory results from PubChem BioAssay (NCI).
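96-well plates; 48 h exposure; 5 concentrations. Endpoints by linear interpolation between flanking doses. Not reached: highest tested concentration assigned. GI50: concentration for 50% inhibition of growth. TGI: concentration producing complete growth inhibition.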

system: NCI-H322M lung; assay: DTP human tumour cell line panel, 48 h

`Cc1ccc(-c2cc(C(=O)N=Nc3c(O)[nH]c4ccc(F)cc34)c3ccccc3n2)cc1` and `COc1ccc(-c2cc(C(=O)N=Nc3c(O)[nH]c4ccc(Cl)cc34)c3ccccc3n2)cc1` are within 1.5-fold of each other in GI50: 12.2 µM for the first, 15.1 µM for the second.

Compared with `COc1ccc(-c2cc(C(=O)N=Nc3c(O)[nH]c4ccccc34)c3ccccc3n2)cc1`, `Clc1ccc(-c2nc3ccc(-c4nnc(SCc5ccccc5)o4)cc3[nH]2)cc1` is 3.5-fold higher in GI50: 5.43 µM for the first, 18.8 µM for the second.

First: Nc1cccnc1/C=N/NC(=S)NCCNC(=O)c1ccc(-n2nc(-c3ccccc3O)nc2-c2ccccc2O)cc1
Second: Cc1nn(-c2ccccc2)c2nc(C)n(CC(=O)N/N=C/c3ccccc3O)c(=O)c12
The GI50 of the first is 5.3-fold lower: 0.649 µM for the first, 3.47 µM for the second.

`COc1ccc(C(=O)/C=C/c2cc(C(F)(F)F)cc(C(F)(F)F)c2)cc1S(N)(=O)=O` was tested, and the GI50 was 1.58 µM.

`Cc1ccc(-c2cc(C(=O)N=Nc3c(O)[nH]c4ccc(F)cc34)c3ccccc3n2)cc1` and `COc1ccc(-c2cc(C(=O)N=Nc3c(O)[nH]c4ccc(Cl)cc34)c3ccccc3n2)cc1` are within 1.5-fold of each other in TGI: 31.3 µM for the first, 30 µM for the second.

Going from `COc1ccc(-c2cc(C(=O)N=Nc3c(O)[nH]c4ccccc34)c3ccccc3n2)cc1` to `Clc1ccc(-c2nc3ccc(-c4nnc(SCc5ccccc5)o4)cc3[nH]2)cc1`, the TGI rises from 18.6 µM to greater than 100 µM.

First: Nc1cccnc1/C=N/NC(=S)NCCNC(=O)c1ccc(-n2nc(-c3ccccc3O)nc2-c2ccccc2O)cc1
Second: Cc1nn(-c2ccccc2)c2nc(C)n(CC(=O)N/N=C/c3ccccc3O)c(=O)c12
The TGI of the first is higher: greater than 100 µM for the first, 41.6 µM for the second.

For `COc1ccc(C(=O)/C=C/c2cc(C(F)(F)F)cc(C(F)(F)F)c2)cc1S(N)(=O)=O`, the TGI was 3.24 µM.
